# Data from PubChem BioAssay AID463173 (ICCB-Longwood Screening Facility, Harvard Medical School, 2010).
# Screen size: about 52,000 compounds; about 4,300 (8.3%) were called active. Cut-off read from the data, not from the text of the source: active = survival mostly below about 52% (no sharp cut-off); inactive = mostly above about 56%. The list shows a part of the results.
# System: DeltatarO mutant
# Test: S. aureus survival, RN4220 and DeltatarO strains – OD600, teichoic acid synthesis inhibitors, primary screen (AID 463173)
# Settings: S. aureus RN4220 wild type/DeltatarO growth, OD600, 18 h, hits give low values, screened at 18.75 µg/mL (by protocol)
row,SMILES,survival
1,O=C(NCCN1CCN(c2ccccc2F)CC1)C1COc2ccccc2C1 (centres undefined),inactive: 78%
2,COCCn1nnnc1C(c1ccc(OC)c(OC)c1)N1CCc2ccccc21 (centres undefined),inactive: 92%
3,C=CCNC(=O)c1cc(-c2ccccc2)on1,inactive: 93%
4,NC(=O)CN1CCC(N2CCCCC2)CC1,inactive: 96%
5,O=C(CSc1oc(-c2ccccc2)nc1S(=O)(=O)c1ccc(Br)cc1)NC1CCCCC1,inactive: 70%
6,N/C(=N/OC(=O)c1ccccc1)c1ccccn1,inactive: 87%
7,COc1cccc(-c2ccc3c(N)c(C(=O)Nc4ccc(Cl)cc4F)sc3n2)c1,inactive: 59%
8,CCc1ccccc1NC(=O)Cc1ccc(-n2c(C)nc3cccnc32)cc1,inactive: 105%
9,COc1ccc(OC)c(NC(=O)Cc2c(C(=O)O)[nH]c3ccc(Cl)cc23)c1,inactive: 54%
10,Cc1ccc(C2=Nc3ccccc3N(CC(=O)NCc3ccc(Cl)cc3)C(=O)C2)cc1C,inactive: 55%
11,COc1ccc(CNC(=O)c2ccc3c(c2)N(Cc2ccccc2F)C(=O)c2ccccc2S3=O)cc1 (centres undefined),inactive: 76%
12,CC(=O)Nc1nonc1-c1nnc(SCc2ccccc2C)n1C,active: 42%
13,CCOc1nc(NC(=O)NS(=O)(=O)Oc2cccc(F)c2)nc(-c2ccccc2)n1,inactive: 74%
14,Cc1ccc(NS(=O)(=O)c2ccc3[nH]c4c(c3c2)CCCC4)c(C)c1,inactive: 86%
15,CC1CCc2c(sc3nnn(Cc4ccccc4)c(=O)c23)C1 (centres undefined),active: 3%
16,Cc1ccc(-c2nc3ccccn3c2Nc2c(C)cccc2C)o1,active: -2%
17,Cc1nnc(N2CCCC(C(=O)Nc3ccccc3C(F)(F)F)C2)c2nn(-c3ccccc3)c(C)c12 (centres undefined),inactive: 99%
18,NC(=O)N(CCC(=O)O)c1ccccc1,inactive: 78%
19,CC(=O)N(Cc1cccnc1)c1nc2c(C)cc(C)cc2s1,inactive: 70%
20,COc1ccc(CNC(=O)c2cc(-c3cccs3)nc3ccccc23)c(OC)c1,inactive: 122%
21,Cc1ccc(NC(=S)N(Cc2ccco2)Cc2cc3cc(C)c(Cl)cc3[nH]c2=O)cc1,inactive: 82%
22,O=C(Nc1nnc(S(=O)(=O)N2CCCCCC2)s1)c1ccc(Br)cc1,inactive: 60%
23,COc1c(Cl)cc(C(=O)Nc2cccc(-c3nc4ccccc4[nH]3)c2)cc1Cl,active: 15%

row,SMILES,survival
1,CC(=O)c1ccc(NC2=NS(=O)(=O)c3ccccc32)cc1,inactive: 77%
2,O=C(NCc1ccc(F)cc1)c1ccc(CSc2nc3ccncc3n2Cc2ccc(F)cc2)cc1,inactive: 58%
3,Cc1cc(C)c(Cn2c3ccccc3c3cnn(CC(=O)NCCc4ccccc4)c(=O)c32)c(C)c1,inactive: 133%
4,Cc1ccc(Cl)cc1N1CCN(C(=O)CN2C(=O)COc3ccc(S(=O)(=O)N4CCOCC4)cc32)CC1,inactive: 80%
5,CCc1cccc(C)c1NS(=O)(=O)c1c(C(=O)N2CCCCCC2)c(C)n(C)c1C,inactive: 101%
6,COc1ccc(Cl)cc1NC(=O)Cn1nnc2sc3c(c2c1=O)CCC(C(C)(C)C)C3 (centres undefined),inactive: 56%
7,CCOC(=O)c1c(Nc2cccc(O)c2)nnc(-c2ccccc2)c1-c1ccccc1,active: 31%
8,COc1ccc(C(=O)N(Cc2sccc2C)C2CCS(=O)(=O)C2)cc1Cl (centres undefined),inactive: 107%
9,Cc1cc(C)c(S(=O)(=O)Nc2cc(-c3cn4ccccc4n3)ccc2C)cc1C,inactive: 56%
10,CCN1CCN(C(=O)c2ccc3c(c2)N(Cc2ccc(Cl)cc2)C(=O)c2ccccc2S3(=O)=O)CC1,inactive: 77%
11,O=C(CCC(=O)c1ccccc1)Nc1cccnc1,inactive: 83%
12,Cc1cc(=O)n2c(C(=O)Nc3ccc(C)c(Cl)c3)c(C(=O)Nc3ccccc3)sc2n1,active: 56%
13,Cc1cccc(N2CCN(C(=O)C3CCN(S(=O)(=O)c4c(C)noc4/C=C/c4ccccc4F)CC3)CC2)c1C,inactive: 85%
14,CC1(C)Cc2ccccc2/C(=C/C(=O)N2CCOCC2)N1,inactive: 96%
15,O=C(NCc1ccc2c(c1)OCO2)c1ccc2c(c1)N(Cc1cccc(Cl)c1)C(=O)c1ccccc1S2,inactive: 84%
16,Cc1ccc(NC(=O)Cn2cc(S(=O)(=O)c3ccc(F)cc3)c(=O)c3cc4c(cc32)OCO4)cc1,inactive: 55%
17,Cc1ccc(NC(=O)CSc2nccn2C2CCCC2)cc1,inactive: 94%
18,COc1cc(Cl)c(C)cc1NC(=O)CCCN1C(=O)C(c2ccccc2)Oc2cccnc21 (centres undefined),inactive: 79%
19,COCCNC(=O)Cn1c(=O)n(Cc2ccc(C(=O)NCCc3ccc(OC)c(OC)c3)cc2)c(=O)c2ccccc21,inactive: 123%
20,O=C(CSc1nc2ccccc2nc1Cc1ccc(F)cc1)Nc1ccc2c(c1)OCO2,active: 52%
21,Cc1cccc(Oc2nc3ccccn3c(=O)c2/C=C(\C#N)c2nc3ccccc3s2)c1C,inactive: 65%
22,COc1ccc(NC(=O)C2CCCN(S(=O)(=O)c3cn(C)cn3)C2)cc1Cl (centres undefined),inactive: 63%
23,CCOc1ccccc1C1CC(=O)NC(C)=C1C(=O)OC1CCCCCC1 (centres undefined),inactive: 68%

row,SMILES,survival
1,COc1ccc(CCNC(=O)c2ccc3c(c2)CCN3S(=O)(=O)c2ccc(Cl)cc2)cc1,inactive: 50%
2,Cc1ccc(C)n1-c1cccc2cccnc12,inactive: 53%
3,COc1ccccc1CCNC(=O)c1ccc(NC(=O)N2CC(C)Sc3ccccc32)cc1 (centres undefined),inactive: 77%
4,CCCCn1cc(S(=O)(=O)c2ccc(CC)cc2)c(=O)c2cc(F)c(N3CCCC(C)C3)cc21 (centres undefined),inactive: 115%
5,COc1ccc(OC)c(NC(=O)c2ccc(-c3nc(CSc4ccccc4)c(C)o3)cc2)c1,inactive: 88%
6,CC(C)(C)C(=O)Cn1c(=O)n(CCCCCC(=O)NCc2ccc3c(c2)OCO3)c(=O)c2sccc21,inactive: 70%
7,COc1ccc(C(=O)NCCn2cc(SCC(=O)Nc3ccccc3)c3ccccc32)cc1OC,inactive: 67%
8,O=C(Nc1ccccc1O)c1ccccn1,inactive: 77%
9,COc1cc(OC)c(NC(=O)c2c(C)nn(-c3ccc(C)cc3)c2-n2cccc2)cc1Cl,inactive: 78%
10,CCCCn1c2ccc(F)cc2c2nnc(SCCN3CCCCC3)nc21,inactive: 179%
11,CC1=NN(c2ccccc2)C(=O)C1C(=O)O (centres undefined),inactive: 87%
12,COc1ccc(S(=O)(=O)N2C3CCC2CC(NC(=O)C2CC2)C3)cc1 (centres undefined),inactive: 94%
13,O=S(=O)(NCC(c1ccco1)S(=O)(=O)c1cccs1)c1ccc(F)c(C(F)(F)F)c1 (centres undefined),active: 37%
14,CCOC(=O)C1CCN(S(=O)(=O)c2cc(-c3onc(C)c3C)ccc2OC)CC1,inactive: 76%
15,Cc1ccc(Cl)cc1N1CCN(C(=O)C2CCCN(S(=O)(=O)c3ccc(Br)s3)C2)CC1 (centres undefined),inactive: 113%
16,COc1ccccc1NC(=O)CCn1cnc2ccccc2c1=O,inactive: 92%
17,Cc1cccc(C)c1NC(=O)C(C)Sc1n[nH]c(-c2ccncc2)n1 (centres undefined),inactive: 76%
18,Cc1ccc2nc(-c3ccc(Cl)c(NC(=O)c4cccnc4)c3)oc2c1,inactive: 126%
19,CN(C(=O)c1cc2c(=O)oc3ccccc3c2s1)c1ccc(F)cc1,inactive: 60%
20,CCOc1ccc(NC(=O)CSc2nccn2-c2cccc(C)c2C)cc1,inactive: 124%
21,CCOc1ccccc1CNC(=O)c1cc2c(=O)n(Cc3ccccc3)ccc2nc1C,inactive: 90%
22,CC(=O)N1CCCc2cc(S(=O)(=O)N3CCCCC3)ccc21,active: 47%
23,CC1CN(S(=O)(=O)c2cccs2)C(C)CN1S(=O)(=O)c1cccs1 (centres undefined),inactive: 91%

row,SMILES,survival
1,COCCCNC(=O)CCn1c(=O)c2ccccc2n(CC(=O)Nc2c(C)cc(C)cc2C)c1=O,inactive: 91%
2,Cc1cccn2c(Nc3ccccc3)c(-c3ccc(N4CCOCC4)cc3)nc12,inactive: 113%
3,Cc1ccc(-n2c(=O)c3cccnc3n2CC(=O)Nc2cccc(C)c2C)cc1,inactive: 125%
4,CC(C)c1ccc(OC(=O)c2cc(-c3ccc4c(c3)OCCO4)on2)cc1,active: 8%
5,Cc1ccc(CNC(=O)c2nc(SCc3ccc(C)cc3)ncc2Cl)cc1,inactive: 99%
6,COc1ccc(CNC(=O)c2ccc3c(c2)N(Cc2cccc(Cl)c2)C(=O)c2ccccc2S3)c(OC)c1,inactive: 83%
7,CCc1ccccc1NC(=O)Cn1c(=O)c2cccn2c2ccc(F)cc21,inactive: 83%
8,CC(C)c1ccc(NC(=O)CSC2=Nc3ccccc3C3=NC(CC(=O)NCc4ccc(F)cc4)C(=O)N23)cc1 (centres undefined),inactive: 77%
9,COc1cccc(N2CCN(C(=O)c3cccc(NC(=O)c4nsc5ccccc45)c3)CC2)c1,inactive: 89%
10,Cc1sc2c(c1C)c(=O)n(CCc1ccccc1)c(=O)n2Cc1ccccc1Cl,inactive: 103%
11,COc1cc(CN(C(=O)c2ccccc2[N+](=O)[O-])c2ccccn2)cc(OC)c1OC,inactive: 78%
12,CCn1c(=O)c2cc(C(=O)N3CCN(c4cccc(Cl)c4)CC3)sc2c2ccccc21,inactive: 62%
13,CCC(=O)N1CCNC(=O)C1CC(=O)OC (centres undefined),inactive: 87%
14,CCN(CC)S(=O)(=O)c1ccc2c(c1)nc(CN(C)C(=O)c1cccc(Cl)c1)n2C,inactive: 71%
15,COc1ccc(CCNC(=O)C2=C(C)C(=O)OC23CCCCC3)c(OC)c1OC,inactive: 84%
16,CC1CCN(S(=O)(=O)c2ccc3c(c2)N(CC(=O)NCCCN2CCCCC2C)C(=O)CS3)CC1 (centres undefined),inactive: 96%
17,N#Cc1ccccc1NC(=O)c1cc2c(=O)n3ccccc3nc2s1,inactive: 64%
18,O=C(Oc1ccc(N(Cc2ccco2)C(=O)Cn2cnc3ccccc3c2=O)cc1)c1ccccc1F,inactive: 71%
19,CCOc1ccc(C(=O)Nc2nnc(SCc3cc(=O)c4cc(C)ccc4[nH]3)s2)cc1,inactive: 91%
20,NC(=O)Cn1cc(F)c(=O)[nH]c1=O,inactive: 87%
